{"source": "PubChem BioAssay AID720542", "about": "(National Center for Advancing Translational Sciences (NCATS), 2013)", "note": "Out of some 360,000 compounds screened, about 740 (0.21%) were called active. The inconclusive results got no clear call from the source; some entries with a clear call stand among them for comparison. Calls follow the shape of the dose curve; as a rule, active = well fitted inhibition curve with a large enough effect; inconclusive = small, poorly fitted or top-dose-only effect; inactive = no such curve, though single readings can be large or run the other way. No potency is given beside an inconclusive call; the fits are too rough. Potency is read from the fitted curve at half-maximal effect; tags tell the direction and shape of the fitted curve."}
{"system": "Plasmodium falciparum AMA1 (3D7) - RON2 peptide interaction", "test": "qHTS for Inhibitors of AMA1-RON; Towards Development of Antimalarial Drug Lead: Primary Screen; also: nearly all actives have a fitted effect of over 45% in size;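 as to activity change, negative = inhibition: 0% = vehicle wells and -100% = peptide control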", "settings": "AlphaScreen AMA1-biotinylated RON2 peptide binding; activity change, negative = inhibition: at 58.2 µM (top of the series) unless noted", "method_in_brief": "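AMA1 (3D7) with his tag at 25 nM final met compounds first, then biotinylated RON2 peptide at 25 nM; detection used donor plus acceptor beads, 10 µg/mL apiece, read by AlphaScreen after 30 min at room temperature.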"}
{"smiles": "COc1ccc(N2CCN(CCCn3ccc(NC(=O)OCc4ccccc4)nc3=O)CC2)cc1", "Potency": "inconclusive [inhibitor, partial curve]"}
{"smiles": "CNS(=O)(=O)c1cc(OC)ccc1OC", "Potency": "inconclusive [inhibitor, full curve, poor fit]"}
{"smiles": "COc1ccccc1N1CCN(Cc2nc(-c3ccc(F)cc3)oc2C)CC1", "Potency": "inactive"}
{"smiles": "Cc1ccc(C)n1-n1cnc2sc(-c3ccccc3)cc2c1=O", "activity change, negative = inhibition": "inconclusive: 10.3% [inhibitor]"}
{"smiles": "COc1ccc(C[C@H]2c3cc(O)c(OC)cc3CC[N+]2(C)[O-])cc1O", "note": "(some centres undefined)", "Potency": "inconclusive [inhibitor, full curve]"}
{"smiles": "Cc1ccc(OCC(=O)Nc2ccc3c(c2)nc2n3CCOC2)cc1", "Potency": "inactive"}
{"smiles": "CC1CCN(c2ccc(C(=O)Nc3ccc4c(c3)OCO4)cc2[N+](=O)[O-])CC1", "Potency": "inconclusive [inhibitor, partial curve]"}
{"smiles": "COC(=O)c1ccc(/C=C/C(=O)c2cccc(OC)c2)cc1", "Potency": "inconclusive [inhibitor, partial curve]"}
{"smiles": "O=C(CSc1nc2ccccc2o1)Nc1nc(-c2ccccc2)c(-c2ccccc2)s1", "Potency": "inconclusive [inhibitor, full curve, poor fit]"}
{"smiles": "c1ccc(COc2ccc(OCCCN3CCCC3)cc2)cc1", "Potency": "inactive"}
{"smiles": "Cc1cccc(NC(=O)C2C3C=CC(O3)C2C(=O)O)c1C", "note": "(centres undefined)", "Potency": "inactive"}
{"smiles": "O=C(/C=C\\c1ccc(-c2ccccc2)o1)c1ccccc1", "Potency": "inconclusive [inhibitor, partial curve]"}
{"smiles": "c1ccc(C2CCCN(Cc3nc(CC4CC4)no3)CC2)cc1", "note": "(centres undefined)", "Potency": "inconclusive [inhibitor, single point]"}
{"smiles": "O=C(Cc1cccs1)Nc1ccccc1", "Potency": "inactive"}
{"smiles": "O=C(O)CCCCCNS(=O)(=O)c1cccc2c1C(=O)c1ccccc1C2=O", "Potency": "inconclusive [inhibitor, partial curve]"}
{"smiles": "Nc1c(/C=C2/C=CC(=O)C(O)=C2)c(=O)nc2sc(CC(=O)N3CCCC3)nn12", "Potency": "inactive"}
{"smiles": "COc1ccc(-c2csc3nc(C)nc(N4CCC(C)CC4)c23)cc1OC", "Potency": "inconclusive [inhibitor, partial curve]"}
{"smiles": "N#CC(Cc1ccc(OC(F)F)cc1)c1nc2ccccc2[nH]1", "note": "(centres undefined)", "Potency": "inactive"}
{"smiles": "CN(CCc1ccccc1)C(=O)c1ccc(NC(=O)Cc2ccc(NC(=O)C3CCN(C(=O)C4CCC4)CC3)cc2)cc1", "Potency": "inconclusive [inhibitor, full curve]"}
{"smiles": "CCCNC(=S)N1CCN(C)CC1", "Potency": "inconclusive [inhibitor, single point]"}
{"smiles": "Cc1ccc(CN2CCN(/N=C/c3ccc(C)s3)CC2)cc1", "Potency": "active: 25.1 µM"}
{"smiles": "CC1CN(CCCOc2ccccc2-c2ccccc2)CC(C)O1", "note": "(centres undefined)", "Potency": "inconclusive [inhibitor, partial curve]"}
{"smiles": "COC(=O)C[C@@H]1CC[C@@H](NS(=O)(=O)c2ccc(F)cc2)[C@@H](CO)O1", "Potency": "inactive"}
{"smiles": "COc1cc(C2N(c3ccccc3)CCN2c2ccccc2)cc(OC)c1OC", "Potency": "inactive"}
{"smiles": "COC(=O)c1ccc(CN2CCN(CCc3ccccc3)C(CCO)C2)cc1", "note": "(centres undefined)", "Potency": "inactive"}
{"smiles": "O=C(c1ccccc1)C(CCc1ccccn1)CCc1ccccn1", "Potency": "inactive"}
{"smiles": "COc1ccc(NC(=O)CC2CCCCC2)cc1OC", "Potency": "inconclusive [inhibitor, single point]"}
{"smiles": "CC(=O)Nc1ccc(S(=O)(=O)NCCC(=O)NC(C)c2cccs2)cc1", "note": "(centres undefined)", "Potency": "inactive"}
{"smiles": "O=c1[nH]c2cc3c(cc2cc1CN(Cc1cccnc1)C(=S)NCc1ccco1)OCCO3", "Potency": "inconclusive [inhibitor, full curve, poor fit]"}
{"smiles": "CCN1CCN(CCOCCOc2ccccc2)CC1", "Potency": "inconclusive [inhibitor, single point]"}
{"smiles": "CCOc1ccc2ncc(S(=O)(=O)c3ccccc3)c(N3CCN(c4ccc(OC)cc4)CC3)c2c1", "Potency": "inconclusive [inhibitor, partial curve]"}
{"smiles": "C=CCNc1ncnc2c1ncn2[C@H]1CN(Cc2ccc(-c3ccccc3)cc2)C[C@@H](CO)O1", "Potency": "inconclusive [inhibitor, partial curve]"}
{"smiles": "COc1ccc(CNC(=O)C2CCN(S(=O)(=O)c3ccc4c(c3)CC(C)N4C(C)=O)CC2)cc1", "note": "(centres undefined)", "Potency": "inactive"}
{"smiles": "O=C(COC(=O)c1cccc(S(=O)(=O)N2CCOCC2)c1)Nc1nc(-c2ccccc2Cl)cs1", "Potency": "inactive"}
{"smiles": "CCC1S/C(=N/N=C/c2ccco2)N(Cc2ccccc2)C1=O", "note": "(centres undefined)", "Potency": "inconclusive [inhibitor, single point]"}
{"smiles": "COc1cc2c(c(OC)c1OC)-c1ccc(O)c(=O)cc1[C@@H](N)CC2", "Potency": "inconclusive [inhibitor, single point]"}
{"smiles": "CN(C)c1ccc(O)c2c1CC1CC3[C@@H](N(C)C)C(=O)C(C(N)=O)=C(O)[C@]3(O)C(=O)C1=C2O", "note": "(some centres undefined)", "Potency": "inconclusive [inhibitor, partial curve]"}
{"smiles": "Cc1ccc(CN=c2c([N+](=O)[O-])nn(-c3ccc4c(c3)OCCO4)n2O)cc1", "Potency": "inconclusive [inhibitor, single point]"}
{"smiles": "CCOC(=O)CSC1=Nc2ccccc2C2=NC(CC(=O)NCc3ccc4c(c3)OCO4)C(=O)N12", "note": "(centres undefined)", "activity change, negative = inhibition": "inconclusive: -32.4% [inhibitor]"}
{"smiles": "Cc1ccccc1C(=O)Nc1cc(NC(=O)c2ccccc2C)cc(C(=O)O)c1", "Potency": "inconclusive [inhibitor, single point]"}
{"smiles": "CCOC(=O)c1c(CCl)nc2ccccc2c1C", "Potency": "inconclusive [inhibitor, single point]"}
{"smiles": "O=C1NCCCC2c3c(cc(Br)c(O)c3Br)OC12N1CCOCC1", "note": "(centres undefined)", "Potency": "inconclusive [inhibitor, partial curve]"}
{"smiles": "CCc1ccc(Nc2n[n+](-c3ccccc3)c(-c3c(Cl)cccc3Cl)s2)cc1", "Potency": "inconclusive [inhibitor, single point]"}
{"smiles": "C(=C\\c1ccccc1)/CN1CCN(Cc2ccc3c(c2)OCO3)CC1", "Potency": "inconclusive [inhibitor, single point]"}
{"smiles": "Nc1ccc(N)c(C(=O)O)c1", "Potency": "active: 8.91 µM"}
{"smiles": "O=C1C(NS(=O)(=O)c2cccs2)=C(N2CCN(Cc3ccccc3)CC2)C(=O)c2ccccc21", "Potency": "active: 28.2 µM"}
{"smiles": "O=C(CSc1nnc(-c2ccccn2)o1)Nc1ccccc1", "Potency": "inactive"}
{"smiles": "Brc1ccc(C2=Nn3c(nnc3-c3cccnc3)SC2)s1", "Potency": "inconclusive [inhibitor, single point]"}
{"smiles": "COc1ccc(NC(=O)CC(C)NCCCN2CCCC2=O)cc1", "note": "(centres undefined)", "Potency": "inconclusive [inhibitor, single point]"}
{"smiles": "CC(C)C(c1nnnn1Cc1ccco1)N1CCN(C2CCCC2)CC1", "note": "(centres undefined)", "Potency": "inactive"}
{"smiles": "COc1ccccc1CNC(=O)CSc1nn2c(=O)c(C(C)(C)C)nnc2s1", "Potency": "inactive"}
{"smiles": "COC(=O)c1ccccc1NC(=O)CN1CCN(C23CC4CC(CC(C4)C2)C3)CC1", "Potency": "inconclusive [inhibitor, single point]"}
{"smiles": "O=[N+]([O-])c1ccc(SCc2c(F)cccc2Cl)nc1", "Potency": "inconclusive [inhibitor, single point]"}
{"smiles": "CN(C)c1ccc(NC(=S)Nc2ccc3c(c2)c(=O)n(C)n3-c2ccc(C(C)(C)C)cc2)cc1", "Potency": "inconclusive [inhibitor, partial curve]"}
{"smiles": "O=c1c(-c2ccc(Cl)cc2)cnc2n1CCS2", "Potency": "inconclusive [inhibitor, partial curve, poor fit]"}
{"smiles": "O=C(NCC1CCCO1)c1c(O)c2c([nH]c1=O)CCCC2", "note": "(centres undefined)", "Potency": "inactive"}
{"smiles": "CCCCc1ccc(NC(=O)CSc2nc(=O)n(CCN(C)C)c3c2CCC3)cc1", "Potency": "inactive"}
{"smiles": "C=CCc1ccc(OCCOc2cccc(/C=N/n3cnnc3)c2)c(OC)c1", "Potency": "inconclusive [inhibitor, single point]"}
{"smiles": "COCCN(Cc1nc2ccccc2c(=O)[nH]1)C(=O)c1cccc(S(=O)(=O)N2CCCC2)c1", "Potency": "inactive"}
{"smiles": "CSCCC(c1nnnn1-c1ccc2c(c1)OCCO2)N1CCC(n2c(=O)[nH]c3ccccc32)CC1", "note": "(centres undefined)", "Potency": "inconclusive [inhibitor, single point]"}
{"smiles": "O=C(CC1CCCCC1)NC1CCCC1", "Potency": "inactive"}
{"smiles": "S=C1SCN(Cc2cccs2)CN1Cc1cccs1", "Potency": "inactive"}
{"smiles": "Cc1cccc(NC(=O)Cc2coc3ccc4ccccc4c23)n1", "Potency": "inconclusive [inhibitor, single point]"}
{"smiles": "COc1ccc(CCC(=O)NCCS(=O)(=O)N2CCN(c3ccccc3)CC2)cc1", "Potency": "inactive"}
{"smiles": "CCN(CC)C(C(=O)Nc1ccc2c(c1)OCO2)c1ccccc1", "note": "(centres undefined)", "Potency": "inactive"}
{"smiles": "O=C(N/N=C/c1ccc2c(c1)OCO2)c1cc2ccccc2o1", "Potency": "inactive"}
{"smiles": "COc1ncnc2c1oc1nc(CC(C)C)c3c(c12)CCCC3", "Potency": "inactive"}
{"smiles": "CN(C)c1ccc(/C=N/OC(=O)Nc2ccccc2Cl)cc1", "Potency": "inactive"}
{"smiles": "Cc1ccccc1-c1nc2sc3c(c2c(=O)n1N)CCCC3", "Potency": "inactive"}
{"smiles": "Cc1ccc(N=Nc2ccc3ccccc3c2O)cc1", "Potency": "active: 2.82 µM"}
{"smiles": "CCn1c(-c2cc(-c3cc(OC)ccc3OC)nc3ccccc23)n[nH]c1=S", "Potency": "inconclusive [inhibitor, partial curve]"}
{"smiles": "O=C(CCCn1c(=O)oc2ccccc21)N1CCc2ccccc2C1", "Potency": "inconclusive [inhibitor, single point]"}
{"smiles": "Cn1c(-c2ccc(Cl)cc2)cnc1NCc1cc2c(cc1[N+](=O)[O-])OCO2", "Potency": "inconclusive [inhibitor, single point]"}
{"smiles": "CC1=NN(c2ccccc2)C(=O)/C1=C\\c1cn(C)c2ccccc12", "Potency": "inconclusive [inhibitor, full curve]"}
